We go through two sequences from US5580852A, “Derivatives of tachyplesin having inhibitory activity towards plant pathogenic fungi” (Pioneer Hi-Bred International, Inc., priority 1993, dated 1996).

One experiment has as its system C. nebraskense. As for the experimental part:
(§1) Minimum Inhibitory Concentrations (MIC) and Minimum Complete Inhibitory Concentrations (MCIC) in μg/mL against selected species of bacteria were determined for each of the compounds of this invention.

The next experiment relates to LBA 4404. As to the method:
as §1

In the next experiment the test system is E. stewartii. As to the method:
as §1

The subject of a further experiment is B. pumillus. As to the method: as §1
Another experiment relates to E. coli. The class given is cell-based.
Another experiment deals with Fusarium moniliforme. Put plainly: Antifungal testing, MIC and MCIC. To be noted: NA = not active. As for the experimental part:
(§2) Minimum Inhibitory Concentrations (MIC) and Minimum Complete Inhibitory Concentrations (MCIC) in μg/mL were determined for each of the compounds of this invention using the published methods of Duvick, J. P. et al, J. Biol. Chem., 267, 18814-18820 (1992).

The subject of the next experiment is Aspergillus flavus. Briefly: Antifungal testing, MIC and MCIC. To be noted: NA = not active. As to the method:
as §2

In the case of “KWCFKVCYRGICYKKCK [derivative of the peptide tachyplesin]”, the “MCIC (Minimum Complete Inhibitory Concentration)” value was 25 µg/mL with C. nebraskense; 12.5 µg/mL with LBA 4404; 25 µg/mL in the experiment on E. stewartii; 100 µg/mL with B. pumillus; above 100 µg/mL in the experiment with E. coli; 25 in the experiment with Fusarium graminearum. Besides, the “MCIC (Minimum Complete Inhibitory Concentration)” value in the experiment with Fusarium moniliforme amounted to 48 µg/mL; in the experiment with Aspergillus flavus, 93 µg/mL. Further, the “MIC (Minimum Inhibitory Concentration)” value stood at 3.13 µg/mL in the experiment on C. nebraskense; 3.13 µg/mL with LBA 4404; 3.13 µg/mL against E. stewartii; 6.25 µg/mL against B. pumillus; 3.13 µg/mL against E. coli; 7.5 in the experiment on Fusarium graminearum. Further, the “MIC (Minimum Inhibitory Concentration)” value is 12 µg/mL in the experiment on Fusarium moniliforme and 25 µg/mL in the experiment with Aspergillus flavus.
As for “KWCFRVCYRGICYRRCRGSTSGKWCFRVCYRGICYRRCR [derivative of the peptide tachyplesin]”, the “MCIC (Minimum Complete Inhibitory Concentration)” value with Fusarium graminearum was 32; with Fusarium moniliforme, 64 µg/mL; in the experiment on Aspergillus flavus, above 64 µg/mL. In addition, the “MIC (Minimum Inhibitory Concentration)” value against Fusarium graminearum was determined as 12; in the experiment on Fusarium moniliforme, 16 µg/mL; against Aspergillus flavus it was 32 µg/mL.
